The supplement of paper PMC12217912
The list shows a part of the results. The full chains were built here from the parent and the listed change. Values near 0.05 are background.

B1: TEV protease; numbered along this chain (parent)
chain: MGESLFKGPRDYNPISSSICHLTNESDGHTTSLYGIGFGPFIITNKHLFRRNNGTLVVQSLHGVFKVKDTTTLQQHLVDGRDMIIIRMPKDFPPFPQKLKFREPQREERICLVTTNFQTKSMSSMVSDTSCTFPSGDGIFWKHWIQTKDGQCGSPLVSTRDGFIVGIHSASNFTNTNNYFTSVPKNFMELLTNQEAQQWVSGWRLNADSVLWGGHKVFMVKPEEPFQPVKEATQL

Variants of: B1
Test: raw area under fraction-flipped curve 0-4 h after induction (AUC4h, not background-subtracted), DNA-recorder readout of cleavage of the substrate (dimensionless); higher = more cleavage of the substrate by the protease variant
Details: temperature: 34 °C; time window: 0-4 h after rhamnose induction
Protocol: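 In vivo DNA recorder in E. coli TOP10(DE3) ΔrhaA at 34 °C. Each TEVp single-site mutant (parent TEVp 0) is paired with a single-site variant of the 7-mer TEVs (canonical ENLYFQ|S). The substrate sits between flexible linkers in a Bxb1-sfGFP-TEVs-SsrA fusion, so cleavage stabilises Bxb1 and speeds flipping of a recombination array, read by NGS. The value is the raw area under the fraction-flipped curve over 0-4 h after rhamnose induction (AUC4h), with ≥20 reads per time point. It is not background-subtracted; inactive controls average about 0.047.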
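Also: Bxb1 expression induced with 0.2% (w/v) L-rhamnose at OD600 near 0.5, cultures sampled hourly, flipped fraction per protease–substrate barcode pair counted by paired-end Illumina sequencing.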

Variant | area with substrate ENLYAQS | area with substrate ENLYDQS | area with substrate ENLYGQS | area with substrate ENLYHQS | area with substrate ENLYIQS | area with substrate ENLYKQS | area with substrate ENLYRQS | area with substrate ENLYSQS | area with substrate ENLYVQS | area with substrate ENLYWQS | area with substrate ENLYYQS | area with substrate ENLYCQS | area with substrate ENLYEQS | area with substrate ENLYLQS | area with substrate ENLYMQS | area with substrate ENLYNQS | area with substrate ENLYTQS | area with substrate ENLYPQS | area with substrate ENLYQQS
D69I | 0.0682 | 0.0503 | 0.0598 | 0.0696 | 0.0822 | 0.0269 | 0.0615 | 0.0584 | 0.0613 | 0.0571 | 0.0502 | – | – | – | – | – | – | – | –
C20G | 0.0512 | – | – | – | – | – | – | – | – | 0.0474 | – | – | – | – | – | – | – | – | –
G63D | 0.0549 | 0.0592 | – | 0.0482 | 0.111 | 0.0347 | 0.0782 | – | 0.108 | 0.0678 | – | 0.0844 | 0.0598 | 0.0642 | 0.082 | 0.0676 | 0.0939 | – | –
I164Y | 0.0767 | 0.0491 | 0.0653 | 0.0518 | – | 0.0465 | – | 0.0505 | 0.0541 | 0.0465 | 0.0472 | – | 0.0605 | 0.057 | 0.0662 | 0.0505 | 0.0604 | 0.0583 | 0.0783
I19C | 0.0613 | 0.0661 | 0.0589 | 0.0772 | – | 0.063 | 0.072 | 0.0981 | 0.149 | 0.0872 | 0.0671 | – | 0.0659 | – | – | 0.0693 | 0.0635 | 0.0762 | 0.0616
T181Y | 0.0689 | 0.0586 | 0.0542 | 0.0579 | 0.0593 | 0.0391 | 0.0602 | 0.0629 | 0.051 | – | 0.0594 | – | 0.069 | 0.0582 | 0.0656 | 0.0554 | 0.0341 | 0.0723 | 0.0354
P9G | 0.075 | 0.0652 | 0.0591 | 0.0755 | 0.103 | 0.0579 | 0.0695 | 0.0758 | – | 0.0859 | 0.0786 | – | 0.0774 | 0.0736 | 0.0877 | 0.0794 | – | 0.0616 | –
L156M | 0.0912 | 0.0859 | 0.0808 | 0.075 | 0.103 | 0.0717 | 0.0526 | 0.0764 | 0.116 | – | 0.0724 | 0.0921 | 0.0625 | 0.0671 | 0.0758 | 0.0707 | – | – | –
R81L | 0.0657 | – | 0.0621 | – | 0.0721 | 0.0432 | 0.0619 | – | – | 0.0577 | – | – | 0.0756 | – | 0.0585 | 0.0396 | 0.0677 | 0.0329 | 0.0607
S60E | 0.0557 | 0.0586 | 0.0586 | 0.0577 | 0.0709 | 0.0876 | – | 0.0486 | – | 0.0537 | 0.0551 | – | 0.0392 | – | 0.0646 | 0.0437 | 0.0463 | 0.0518 | 0.0455
L77V | 0.0712 | – | 0.0507 | 0.0663 | 0.125 | – | 0.0658 | 0.0474 | 0.0811 | 0.0544 | – | – | 0.0592 | 0.0808 | – | 0.0688 | – | 0.066 | 0.0541
I15A | 0.0697 | 0.0462 | – | 0.0666 | 0.102 | 0.069 | 0.058 | 0.08 | 0.106 | 0.0609 | 0.0557 | – | 0.0609 | – | – | 0.0643 | – | 0.07 | 0.0437
V183Y | 0.0626 | 0.0641 | 0.0694 | 0.0554 | 0.0771 | – | 0.0673 | 0.0659 | – | 0.0592 | 0.0625 | – | 0.1 | – | 0.0572 | – | 0.0389 | 0.048 | –
E107K | 0.0951 | – | 0.0699 | 0.0746 | 0.0798 | 0.0749 | 0.0766 | 0.0535 | – | 0.0722 | – | – | 0.0625 | 0.0722 | – | 0.0612 | 0.074 | 0.0946 | 0.0588
I42N | 0.0428 | 0.0423 | 0.0556 | 0.0317 | 0.0536 | 0.048 | – | 0.0198 | – | 0.0481 | – | 0.0277 | 0.0537 | – | 0.0412 | 0.0445 | – | 0.0369 | 0.0468
R102Q | 0.0432 | 0.0528 | 0.0658 | – | 0.0566 | 0.0545 | – | 0.059 | 0.0354 | 0.0492 | 0.0644 | 0.0637 | 0.0436 | – | 0.0557 | 0.0537 | – | – | 0.0396
K68E | 0.0875 | 0.0744 | 0.0838 | 0.0907 | 0.138 | 0.073 | 0.0752 | – | 0.121 | – | 0.0694 | – | 0.0641 | – | 0.0726 | 0.0561 | – | 0.0748 | 0.0694
Q74W | 0.0548 | 0.0746 | 0.0687 | 0.0599 | 0.118 | 0.0662 | 0.0653 | 0.0682 | 0.0958 | 0.0716 | – | – | 0.0685 | 0.069 | 0.0652 | 0.0651 | 0.0817 | – | 0.0463
I110Q | 0.0496 | 0.051 | – | 0.0507 | 0.0491 | – | 0.0585 | – | – | 0.0567 | 0.0677 | – | 0.0696 | 0.0589 | 0.0559 | 0.0567 | 0.0683 | 0.0618 | 0.0682
W203C | 0.0435 | 0.0713 | 0.0519 | 0.0679 | – | 0.0504 | 0.0567 | – | – | – | – | – | 0.053 | 0.052 | – | 0.0588 | – | 0.06 | 0.0472
G54N | 0.0648 | 0.0649 | 0.0603 | 0.0604 | 0.0752 | 0.0692 | 0.062 | 0.0571 | 0.0552 | 0.0695 | 0.0529 | – | 0.0635 | – | 0.0584 | 0.0719 | 0.0618 | 0.0608 | 0.0618
G54T | 0.0616 | – | 0.0614 | 0.0728 | 0.0819 | 0.0722 | 0.0529 | 0.0527 | 0.0777 | 0.0614 | – | 0.0769 | 0.0582 | 0.0641 | 0.0566 | 0.0655 | 0.0628 | 0.0614 | –
G37E | 0.052 | 0.0481 | – | 0.0377 | 0.0525 | 0.066 | 0.05 | 0.0481 | 0.0809 | 0.0454 | 0.0428 | – | 0.0484 | – | 0.0583 | 0.0421 | 0.0548 | 0.0516 | 0.0576
G37K | 0.0579 | 0.064 | 0.0484 | 0.0474 | 0.0527 | 0.0448 | 0.0498 | 0.0464 | – | 0.0552 | 0.05 | 0.0533 | – | – | 0.0537 | 0.051 | – | – | 0.0626
G166P | 0.0596 | 0.0518 | 0.0434 | 0.0446 | – | – | 0.0543 | – | 0.0434 | 0.0462 | – | – | 0.0463 | – | – | 0.0502 | 0.0462 | 0.0483 | 0.0467
I36L | 0.0629 | 0.056 | 0.0788 | 0.0636 | 0.131 | 0.0663 | 0.0773 | 0.0707 | 0.118 | 0.0826 | – | – | 0.0714 | – | 0.1 | 0.0734 | – | 0.0886 | –
